The supplement of paper PMC4967469
The IC50 comes from the fitted curve, where viability falls to half of the control; a fit beyond the top or the lowest dose is shown as a bound at that dose. For AUC the same curve is integrated over the 256-fold range of doses and scaled to a fraction; the more sensitive the line, the further below 1. For part of these data: The top dose, if marked as inferred, comes from the curve model; the source does not state it.

Legend:
Experiment in all cases: Viability of human cancer cell lines after 72 h of drug (GDSC screen)
[1] = compound: CC(=O)Nc1nc(C)c(-c2ccc(Cl)c(S(=O)(=O)NCCO)c2)s1 [PIK-93]; details: top dose 20 µM
Experimental: (§1)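 Human cancer cell lines in 384-well plates, medium with 10% serum, drug for 72 h over a 256-fold dose range (nine 2-fold or five 4-fold steps up to the top dose). Adherent lines were fixed and stained with the nucleic acid dye Syto60, suspension lines read with resazurin; signal relative to control wells, capped at 0 and 100%. One two-parameter sigmoid per drug and line, fitted in a mixed model over all curves with the slope shared within a line.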

[2] = compound: CC1(C)CCC(c2ccc(Cl)cc2)=C(CN2CCN(c3ccc(C(=O)NS(=O)(=O)c4ccc(N[C@H](CCN5CCOCC5)CSc5ccccc5)c(S(=O)(=O)C(F)(F)F)c4)cc3)CC2)C1 [ABT-263]; details: top dose 2 µM; top dose inferred
Experimental: as §1

[3] = compound: COc1cc(/C=C/C(=O)N2CCC=CC2=O)cc(OC)c1OC [piperlongumine]; details: top dose 10 µM
Experimental: as §1

[4] = compound: Cn1cc(/C=C2\C(=O)Nc3cccnc32)c2ccccc21 [GW 441756]; details: top dose 2 µM; top dose inferred
Experimental: as §1

Cell Line | AUC [1] | IC50 [1] | AUC [2] | IC50 [2] | AUC [3] | IC50 [3] | AUC [4] | IC50 [4]
OC-314 (ovary, adherent) | 0.8 | 8.1 µM | 0.971 | > 2000 nM | 0.639 | 1.42 µM | 0.982 | > 2000 nM
H2373 (mesothelioma, adherent) | 0.847 | > 20 µM | 0.983 | > 2000 nM | 0.777 | 5.12 µM | 0.875 | > 2000 nM
H2369 (mesothelioma, adherent) | 0.935 | > 20 µM | 0.982 | > 2000 nM | 0.786 | 4.46 µM | 0.662 | 359 nM
HuCCT1 (biliary tract, adherent) | 0.752 | 7.33 µM | 0.983 | > 2000 nM | 0.66 | 1.84 µM | 0.982 | > 2000 nM
MDA-MB-330 (breast, adherent) | 0.843 | 17.3 µM | 0.409 | 67.8 nM | 0.775 | 4.53 µM | 0.932 | > 2000 nM
SCC-25 (head and neck, adherent) | 0.797 | 10.9 µM | 0.942 | > 2000 nM | 0.806 | 5.88 µM | 0.983 | > 2000 nM
PCI-4B (head and neck, adherent) | 0.865 | 16.2 µM | 0.967 | > 2000 nM | 0.605 | 1.2 µM | 0.972 | > 2000 nM
CAL-120 (breast, adherent) | 0.723 | 6.55 µM | 0.796 | 1260 nM | 0.688 | 2.48 µM | 0.978 | > 2000 nM
8505C (thyroid, adherent) | 0.783 | 8.98 µM | 0.899 | > 2000 nM | 0.729 | 2.94 µM | 0.966 | > 2000 nM
ECC10 (stomach, suspension) | 0.912 | > 20 µM | 0.546 | 168 nM | 0.762 | 3.73 µM | 0.979 | > 2000 nM
JIMT-1 (breast, adherent) | 0.886 | > 20 µM | 0.901 | > 2000 nM | 0.693 | 2.29 µM | 0.979 | > 2000 nM
WM35 (melanoma, adherent) | 0.605 | 2.44 µM | 0.95 | > 2000 nM | 0.771 | 3.85 µM | 0.971 | > 2000 nM
